# Measured values from the supplement of paper PMC7826260.
# This is one part of the list. The data describe in vitro nicking of single-stranded DNA by Rep domains at 3 µM enzyme and 37 °C for 1 h; the strands have 90 letters, of which the middle is given. The score is log2 (uncut reads / reads without enzyme); uncut sequences lie near 0, cut ones below; no hit call is given. Shares of all reads are compared, so uncut sequences can rise above 0 when many others are cut.
# Columns and labels:
# Experiment in all cases: uncleaved DNA left, log2 of reads against the no-enzyme library (log2 ratio); higher = less cleavage (more negative = more Rep cleavage of the k-mer); sequences stand for … in CTCGTCCG…ACCGGAGA
# [1] = system: T1, Rep nickase domain of Muscovy duck circovirus
# T1 sequence (residues 1-111 of Rep, tag left off): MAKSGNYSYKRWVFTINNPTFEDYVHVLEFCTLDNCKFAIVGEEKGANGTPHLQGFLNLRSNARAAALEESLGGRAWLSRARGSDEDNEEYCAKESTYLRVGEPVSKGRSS
# Experimental: (§1)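 A pool of 90-nt single-stranded DNAs with seven random bases just before the constant AC of the nick site (name = the seven bases) was cut by 3 µM recombinant His6-SUMO-tagged Rep nickase domain (300 nM DNA, 50 mM HEPES pH 8.0, 50 mM NaCl, 1 mM MnCl2, 1 h, 37 °C, three replicates). Uncut DNA was amplified and sequenced.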
# [2] = system: T2, Rep nickase domain of banana bunchy top virus
# T2 sequence (residues 1-94 of Rep, tag left off): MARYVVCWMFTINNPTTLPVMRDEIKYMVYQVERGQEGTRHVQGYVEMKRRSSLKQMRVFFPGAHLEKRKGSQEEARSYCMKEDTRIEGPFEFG
# Experimental: as §1
# [3] = system: T3, Rep nickase domain of cabbage leaf curl virus
# T3 sequence (residues 1-116 of Rep, tag left off): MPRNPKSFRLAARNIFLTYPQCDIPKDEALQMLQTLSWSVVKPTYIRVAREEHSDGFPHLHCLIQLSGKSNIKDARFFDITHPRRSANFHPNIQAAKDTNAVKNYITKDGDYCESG
# Experimental: as §1
# [4] = system: T4, Rep nickase domain of chickpea chlorotic dwarf virus
# T4 sequence (residues 1-124 of Rep, tag left off): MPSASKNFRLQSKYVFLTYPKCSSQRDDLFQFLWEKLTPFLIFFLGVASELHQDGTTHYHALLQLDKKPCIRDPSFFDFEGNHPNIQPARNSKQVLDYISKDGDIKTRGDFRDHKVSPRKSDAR
# Experimental: as §1
# [5] = system: T5, Rep nickase domain of faba bean necrotic yellows virus
# T5 sequence (residues 1-98 of Rep, tag left off): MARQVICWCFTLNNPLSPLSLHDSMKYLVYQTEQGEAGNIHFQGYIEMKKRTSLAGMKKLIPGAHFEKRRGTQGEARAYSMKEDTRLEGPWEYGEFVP
# Experimental: as §1
# [6] = system: T6, Rep nickase domain of maize striate mosaic virus
# T6 sequence (residues 1-117 of Rep, tag left off): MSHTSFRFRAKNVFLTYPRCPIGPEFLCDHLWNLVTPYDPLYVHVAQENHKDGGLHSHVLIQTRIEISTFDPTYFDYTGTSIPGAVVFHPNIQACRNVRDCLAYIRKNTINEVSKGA
# Experimental: as §1
# [7] = system: T7, Rep nickase domain of porcine circovirus 2
# T7 sequence (residues 2-116 of Rep, tag left off): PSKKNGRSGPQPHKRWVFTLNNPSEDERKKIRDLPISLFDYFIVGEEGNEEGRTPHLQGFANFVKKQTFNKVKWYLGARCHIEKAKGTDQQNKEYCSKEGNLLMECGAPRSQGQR
# Experimental: as §1
# [8] = system: T8, Rep nickase domain of tomato golden mosaic virus
# T8 sequence (residues 1-124 of Rep, tag left off): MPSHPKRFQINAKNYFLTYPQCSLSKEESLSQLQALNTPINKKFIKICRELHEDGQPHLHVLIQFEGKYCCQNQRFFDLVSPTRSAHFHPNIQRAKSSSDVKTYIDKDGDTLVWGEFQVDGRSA
# Experimental: as §1
# [9] = system: T9, Rep nickase domain of tomato yellow leaf curl virus
# T9 sequence (residues 1-136 of Rep, tag left off): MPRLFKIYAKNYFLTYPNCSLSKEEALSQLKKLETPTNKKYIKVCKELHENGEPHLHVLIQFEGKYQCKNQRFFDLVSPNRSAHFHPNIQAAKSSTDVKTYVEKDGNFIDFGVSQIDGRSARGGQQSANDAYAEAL
# Experimental: as §1
# [10] = system: T10, Rep nickase domain of wheat dwarf virus
# T10 sequence (residues 1-137 of Rep, tag left off): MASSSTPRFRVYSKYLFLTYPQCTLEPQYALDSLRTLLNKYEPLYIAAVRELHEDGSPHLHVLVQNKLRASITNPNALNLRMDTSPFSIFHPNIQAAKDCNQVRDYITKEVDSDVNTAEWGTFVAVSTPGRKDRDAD
# Experimental: as §1
Sequence,uncleaved DNA left (log2) [1],uncleaved DNA left (log2) [2],uncleaved DNA left (log2) [3],uncleaved DNA left (log2) [4],uncleaved DNA left (log2) [5],uncleaved DNA left (log2) [6],uncleaved DNA left (log2) [7],uncleaved DNA left (log2) [8],uncleaved DNA left (log2) [9],uncleaved DNA left (log2) [10]
GTGTTCC,-0.0684,0.013,0.281,0.829,-0.0751,1.85,-0.0392,0.155,-0.0275,0.0129
CTCCCTA,-0.086,-0.0679,0.0132,-0.82,-0.0765,-0.42,-0.2,-0.0651,0.211,0.065
CTATATT,-4.11,-3.34,-3.4,-3.53,-0.778,-2.65,-3.69,-3.72,-0.126,-3.47
AAATTCG,-0.0594,0.0161,-0.771,0.448,-0.0451,-0.711,0.0432,0.0421,0.0798,-0.0667
TGAACTA,-0.009,0.0466,0.137,-0.649,-0.0283,0.127,-0.0387,-0.0508,0.149,0.022
GAACCCA,-0.136,0.00418,0.211,-0.787,-0.0788,0.904,-0.514,-0.0665,0.033,0.113
GTTGAGT,0.184,0.0818,0.158,0.468,-0.0107,0.159,0.156,0.016,0.215,0.022
CTCGAAA,-0.134,-0.0684,-0.0372,-0.146,-0.0751,-0.756,-0.0352,0.0355,0.013,-0.0138
CTAACTG,0.0125,0.143,-0.196,-0.155,0.0218,0.823,0.0146,0.00337,0.0294,0.0459
GCATAGG,0.0362,0.0917,0.0677,0.679,0.134,-0.0525,0.288,0.17,0.136,0.0984
ATCTGTG,0.0212,0.156,-0.645,-0.00982,0.145,-0.83,0.239,0.0816,0.0937,0.0147
GAGTAGT,-1.49,-2.5,0.122,-0.0216,-2.42,0.228,-3.25,-0.0902,0.177,0.0445
GGGGAGG,0.126,0.145,0.86,1.77,-0.00516,2.27,0.342,0.0922,0.0608,0.21
GCCGCTT,0.0366,-0.128,0.139,-0.812,-0.0295,0.00339,-0.018,0.115,-0.0822,-0.0125
AGCGTTG,-0.0984,0.0409,0.0159,0.611,-0.0188,1.56,-0.0789,0.0491,0.0182,0.0762
TAAGTGA,0.0504,-0.0535,-0.265,-0.831,0.0178,-0.622,0.0744,-0.0284,-0.0505,0.00538
GCGAAGG,0.0255,0.07,0.178,0.832,0.0442,1.34,0.228,0.16,0.139,0.0834
ATGAAGT,0.253,0.0753,-0.184,-0.534,0.14,-0.965,-0.00681,0.0164,-0.00672,0.0195
TGGTCTC,-0.00344,0.106,0.41,0.696,-0.1,1.39,-0.0912,-0.0349,0.0341,0.104
TATCCCG,-0.142,-0.0186,-0.855,-0.211,-0.0426,-1.08,-0.341,-0.0819,-0.0823,-0.124

Sequence,uncleaved DNA left (log2) [1],uncleaved DNA left (log2) [2],uncleaved DNA left (log2) [3],uncleaved DNA left (log2) [4],uncleaved DNA left (log2) [5],uncleaved DNA left (log2) [6],uncleaved DNA left (log2) [7],uncleaved DNA left (log2) [8],uncleaved DNA left (log2) [9],uncleaved DNA left (log2) [10]
CAAGTAA,0.00516,0.105,-0.184,-0.299,0.0295,-0.731,-0.036,0.0958,0.000981,0.11
AAGCACT,0.115,0.0574,-0.0547,-1.78,0.0866,0.456,-3.03,0.11,-0.0465,0.107
CTATTGG,0.0784,-0.106,-0.681,-0.563,0.051,-1.16,0.118,0.0448,0.0176,-0.0516
GTACATG,0.0492,0.0339,0.336,0.724,0.0613,0.738,0.168,-0.0744,0.0478,0.113
GAACGGT,0.0446,0.0165,0.517,1.37,0.104,1.9,0.0342,0.183,-0.0349,0.0675
CCACAGG,0.0429,0.191,0.226,0.775,0.00264,0.196,0.151,0.103,0.106,0.14
GCTTAAC,-0.0593,0.0505,-0.0971,-0.337,0.0247,0.0597,0.0419,-0.076,-0.0454,0.0265
AATTAAA,-0.409,-0.178,-0.167,-0.734,-0.0226,-0.722,-0.629,0.0321,-0.0156,-0.048
ATGTCTC,-0.0536,-0.124,-0.045,-0.128,-0.0406,-0.104,-0.384,0.0124,-0.017,-0.0447
ACTGACG,0.098,0.196,-0.695,-0.397,0.0977,-1.06,0.13,0.0623,0.184,0.0796
GTAACGA,0.0778,0.0369,-0.00412,0.476,-0.0473,0.603,0.0901,0.119,0.0334,0.0638
GCAAGGG,-0.0871,0.0364,-0.13,0.0771,0.0165,-0.549,0.186,0.0987,0.00649,-0.0235
TGCCAAC,-0.0706,-0.0509,0.291,0.118,-0.0901,1,-0.0849,-0.0312,-0.147,-0.00899
GTACCTT,0.0273,0.0404,0.267,0.583,0.027,1.72,-0.0394,0.142,0.161,0.131
ACTGTTC,0.0129,-0.0279,-0.101,0.0949,-0.0384,0.0296,-0.0105,0.0738,0.0407,0.101
GGGAGCT,-0.0352,0.0152,0.784,1.89,-0.0438,2.16,0.0706,-0.125,-0.111,0.173
TACGCCT,-0.137,-0.147,-1.88,-2.66,-0.0656,-0.798,-0.584,-0.238,-0.108,-0.251
TCTCGCG,0.0797,-0.141,-0.665,0.49,0.0922,-0.77,0.189,-0.118,-0.116,-0.0483
CGCCTAT,-0.188,-0.122,0.0084,-0.459,0.032,-0.325,-0.165,-0.174,-0.0903,-0.226
CTGACGA,-0.216,-0.184,-0.27,-0.191,-0.112,-0.732,-0.111,-0.164,-0.276,-0.153

Sequence,uncleaved DNA left (log2) [1],uncleaved DNA left (log2) [2],uncleaved DNA left (log2) [3],uncleaved DNA left (log2) [4],uncleaved DNA left (log2) [5],uncleaved DNA left (log2) [6],uncleaved DNA left (log2) [7],uncleaved DNA left (log2) [8],uncleaved DNA left (log2) [9],uncleaved DNA left (log2) [10]
TAAAGAC,-0.0522,-0.0197,-0.0358,-0.502,-0.038,-0.104,0.163,-0.0541,-0.0292,-0.0616
CTTCTTA,0.00144,0.0821,0.0847,-1.25,0.0461,-0.462,-0.233,0.166,0.0645,0.174
CCAAATA,0.115,0.0711,-0.0792,-1.56,0.0415,-0.477,0.0139,0.0894,0.0296,0.0445
ATGCTCG,0.0212,-0.0534,-0.658,-0.523,0.0104,-0.926,0.173,-0.0227,-0.0443,-0.0944
CTTCTCC,-0.0148,-0.0477,-0.0327,0.0483,-0.0348,0.924,0.0379,-0.176,0.00151,0.0349
ACGAGTC,0.125,-0.122,-0.181,-0.222,0.00528,-0.84,0.0407,-0.0421,-0.0843,-0.0463
TGGCAAA,0.00339,0.118,0.343,0.894,-0.0584,0.679,0.132,-0.0389,0.00498,0.241
AGGGCGT,0.14,0.0427,0.0791,0.429,0.124,0.0754,0.209,0.115,-0.00695,0.0812
TACAAAC,-0.0676,0.0289,-0.0494,-0.572,0.0589,-0.707,0.117,0.0302,0.0417,0.0139
CCAATGC,-0.0464,0.16,-0.584,-0.276,0.0919,-1.25,0.208,0.0711,0.218,0.0443
CACTCGT,-0.0893,-0.526,-0.783,-2.11,-0.183,-1.27,-3.01,-0.164,-0.0867,-0.275
AGGGTCC,0.0247,0.0386,0.116,0.66,-0.063,0.767,0.0827,0.0684,0.00578,0.0362
CTACAAG,0.0657,-0.0484,-0.72,-0.856,-0.0627,-1.03,0.169,-0.00427,0.12,-0.0874
AGTACAT,0.0499,0.137,0.723,1.5,0.0123,1.8,-3.3,0.133,0.075,0.237
CAATTTG,0.109,-0.15,-0.757,-0.707,0.0966,-1.23,0.0811,-0.0227,0.0854,-0.108
ACACTGT,0.0392,-0.109,-0.521,-0.759,-0.0624,-0.891,0.099,-0.0218,-0.0843,-0.0968
CTTCCTA,-0.171,-0.000492,-0.02,-1.17,-0.138,-0.48,-0.401,0.00409,0.0577,0.0098
CACGCGA,-0.0217,-0.0211,-0.77,-0.351,-0.0929,-0.77,-0.000893,-0.0684,-0.0173,-0.101
CCATCGT,0.000745,-0.084,-0.688,-0.892,0.069,-1.18,0.0382,-0.0624,0.0625,-0.165
GCAAAGC,-0.0299,0.0822,-0.12,0.0248,-0.0131,-0.743,0.0801,0.0555,0.0133,0.0508
